Experimental data as given in PubChem BioAssay (NCI).
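These data come from cells grown in 96-well plates and exposed to compound for 48 hours at five concentrations. The concentration for 50% growth inhibition is given as GI50. TGI denotes the concentration required for complete inhibition of growth.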

System: NCI-H322M lung
Assay: growth of human tumour cells (NCI), 48 h

| SMILES | GI50 | TGI |
| --- | --- | --- |
| CS(=O)(=O)c1nccc(-c2c(-c3cccc(OCc4ccccc4)c3)nc3sccn23)n1 | 5.11 µM | 10.1 µM |
| CC(C)(c1ccccc1)c1ccc(Oc2ccc3c(c2)-c2nc-3nc3[nH]c(nc4nc(nc5[nH]c(n2)c2ccc(Oc6ccc(C(C)(C)c7ccccc7)cc6)cc52)-c2cc(Oc5ccc(C(C)(C)c6ccccc6)cc5)ccc2-4)c2ccc(Oc4ccc(C(C)(C)c5ccccc5)cc4)cc32)cc1 |  | > 100 µM |
| CCCCCCCCCCCCCCCCCCNc1ccn(C2OC(COP(=O)(O)OCC(COP(=O)(O)OCC3OC(n4cc(C)c(=O)[nH]c4=O)CC3N=[N+]=[N-])OCCCCCCCCCCCCCCCCCC)C(O)C2O)c(=O)n1 (stereo unspecified) |  | > 100 µM |
| OCC(O)C(O)C(O)c1nn[nH]n1 (stereo unspecified) |  | > 100 µM |
| CC1(C)CC(=O)c2c([nH]c(=S)c(C#N)c2-c2ccc(Br)cc2)C1 |  | > 100 µM |
| Cc1cc(C)c(-n2c(C)c(C)c(C#N)c2N)c(C)c1 |  | > 100 µM |
| O=C(O)\C=C/C=C/C=C/C=C/C(=O)O |  | > 100 µM |
| CCCCCCCC(=O)SCC/C=C/[C@@H]1CC(=O)NCc2cccc(n2)C2=N[C@@](C)(CS2)C(=O)N[C@@H](C(C)C)C(=O)O1 | 0.0986 µM | > 9.17 µM |
| CC1OC1P(=O)(O)O (stereo unspecified) |  | > 100 µM |
| CC[C@]12C=CCN3CC[C@@]4(c5ccc(OC)cc5N(C)[C@H]4[C@@](O)(C(=O)OC)[C@@H]1OC(=O)CCCC[P+](c1ccccc1)(c1ccccc1)c1ccccc1)[C@@H]32 | 3.33 µM | 14 µM |
| SCc1ccc(-c2ccc(CS)cc2)cc1 |  | 15.4 µM |
| COc1cc(/C=C/C(=O)c2ccc(F)cc2)ccc1OCCCCOc1cc2c(cc1OC)C(=O)N1CCCC1C=N2 (stereo unspecified) | 3.24 µM | > 35.5 µM |
| O=S(Nc1ccccc1)c1ccccc1Oc1ccccc1 (stereo unspecified) |  | > 100 µM |
| CC(=O)O[C@H]1CC[C@@]2(C)C(=CC[C@@H]3C2CC[C@]2(C)C(=O)NC(=O)CC32)C1 (stereo partly specified) |  | > 100 µM |
| COc1ccc(-c2cc(=O)c3c(OC)c(O)c(OC)cc3o2)cc1 |  | > 100 µM |
| CCC(C#N)NCc1ccc(CNC(C#N)CC)cc1 (stereo unspecified) |  | > 100 µM |
| CCOc1cc(/C=N\O)cc(/C=N/O)c1O |  | > 100 µM |
| Cc1nc2ccccc2c(=O)n1Nc1ccc(C(=O)O)cc1 |  | > 100 µM |
| C/C(=N\N)C(CN1CCCCC1)C(c1ccccc1)c1c(O)c2ccccc2oc1=O (stereo unspecified) |  | > 100 µM |
| CSc1ccc(/C=C/C(=O)c2nc3ccccc3[nH]2)cc1 |  | 71.1 µM |
| Cc1ccc(N/N=C/C2=CC(C)(C)C(C#N)(C#N)C(O)=C2C#N)cc1 |  | > 100 µM |
| OC1C2CCC3C2CC(C(O)(c2ccccc2)c2ccccc2)C13 (stereo unspecified) |  | > 100 µM |
| CN(Cc1ccccc1)c1ncnc2ccc(Br)cc12 | 10.5 µM | 23.4 µM |
| CC(=O)O[C@H]1C[C@H]2[C@@H]([C@H](OC(C)=O)C[C@@H]3CC4(CC[C@@]32C)OOC2(CCCCC2)OO4)[C@@H]2CC[C@H]([C@H](C)CCC(N)=O)[C@@]12C |  | 23.8 µM |

| SMILES | GI50 | TGI |
| --- | --- | --- |
| Cc1ccccc1NC(=O)N/C(N)=N/c1nc(C)c(C)s1 | 0.598 µM | > 100 µM |
| CC(=O)OC(=C(C#N)C#N)c1nccnc1C(=O)O |  | > 100 µM |
| O=c1[nH]c(=S)n(-c2cccc3ccccc23)c(O)c1/C=C1\C=Nc2ccccc21 |  | 6.93 µM |
| Cc1cc(N(CCC#N)CCC#N)ccc1/C=C(\NC(=O)/C=C/c1ccccc1)NC(=O)Nc1ccccc1C |  | > 100 µM |
| CCOC(=O)NC(=O)c1cn(CC(=O)NCC(=O)NCC(=O)N2CCN(CCn3c(C)nc(C(N)=O)c3N)CC2)c(=O)[nH]c1=O |  | > 100 µM |
| CCCCCCCCCCCCCCCCOP(=O)(O)OP(=O)(O)OCC1OC(n2cnc3c(N)ncnc32)C(O)C1O (stereo unspecified) |  | > 100 µM |
| COc1ccc(Nc2[nH]n(C3=Nc4ccccc4Sc4ccccc43)c(=O)c2C#N)cc1 | 6.56 µM | > 100 µM |
| COc1cccc(-c2cc(C(=O)Nc3ccc(Cl)cc3)nc(N)n2)c1 |  | > 100 µM |
| O=c1oc2cc(O)ccc2c(O)c1C(c1ccc2ccccc2c1)c1c(O)c2ccc(O)cc2oc1=O |  | > 100 µM |
| Nc1nc2ccccc2c2[nH]c3ccccc3c12 | 1.42 µM | 3.79 µM |
| Cn1c(=O)c2c(nc(N3CCOCC3)n2CCCNCC(O)c2ccc(O)c(O)c2)n(C)c1=O (stereo unspecified) |  | > 100 µM |
| O=C1CC(C(O)C(O)C(O)CO)CC(=O)N1 (stereo unspecified) |  | > 100 µM |
| CC(/C=C/C=C\C=C\C=C(/C)C(=O)NC(C)CO)=C\C(C)C(O)/C(C)=C/C(C)CCc1ccccc1 (stereo unspecified) |  | 46 µM |
| C/C(=N\NC(=O)C[n+]1ccccc1)c1sc(-c2nc(C)c(/C(C)=N/NC(=O)C[n+]3ccccc3)s2)nc1C |  | > 100 µM |
| COCn1c(=O)n(C)c(=O)c2c1nc1c(c(=O)n(C)c(=O)n1COC)[n+]2[O-] |  | > 100 µM |
| Oc1ccccc1/C=N/Nc1nc2ccccc2s1 | 25.1 µM | > 100 µM |
| COc1ccc(C(=O)OC2C(OC3C(O)COC(O[C@H]4C[C@H]5[C@@H]6CC=C7C[C@@H](O)CC[C@]7(C)[C@H]6CC[C@]5(C)[C@H]4[C@H](C)C(=O)CCC(C)C)C3OC(=O)C(C)C)OCC(O)C2O)cc1 (stereo partly specified) | 1.57 µM | 5.7 µM |
| COc1ccc(/C=C(/C(=O)N2CCN(c3ccc(C)cc3)CC2)c2cc(OC)c(OC)c(OC)c2)cc1N | 0.53 µM | > 100 µM |
| COc1ccccc1CN=C1NC(=O)/C(=C/c2ccc3ncccc3c2)S1 | 5.35 µM | > 23 µM |
| O=C(O)c1[nH]c(=O)[nH]c(=O)c1CN1CCCCC1 |  | > 100 µM |
| O=C1C(=Cc2cccc(Cl)c2)N=C(c2ccccc2)N1n1c(-c2ccccc2)nc2ccccc2c1=O |  | > 100 µM |
| Cn1ncc2c(=O)[nH]c(-c3ccccc3)nc21 |  | > 100 µM |
| CN(C)CCn1c2c(c3ccccc31)CCc1ccccc1-2 |  | 35.2 µM |
| CCCCCCCCCCCCCCCCCc1cc(Cl)nc(Cl)n1 |  | > 100 µM |

| SMILES | GI50 | TGI |
| --- | --- | --- |
| O=C1c2ccccc2-c2nc(-c3cccs3)cc3c2c1nc1ccccc13 |  | 75.6 µM |
| CCOP(=O)(OCC)c1cc2cc(O)ccc2oc1=O |  | > 100 µM |
| N=C(N)SC(c1ccccc1)c1ccccc1 |  | 76.5 µM |
| O=C1C2=C(C(=O)c3c(O)ccc(O)c31)N(c1cccnc1)Cc1ccccc1O2 | 2.73 µM | 9.64 µM |
| CC(C)(C)n1nc(C2CC2)cc1NC(=O)Nc1ccc(Cl)cc1 |  | > 100 µM |
| NNC(=O)C(O)C(O)C(O)CO (stereo unspecified) |  | > 100 µM |
| CC(C)C(C)C(O)C(O)C(C)C1CCC2C3COC(=O)C4CC(O)C(O)CC4(C)C3CCC12C (stereo unspecified) |  | > 100 µM |
| OCCNC(=S)Nc1ccc(-c2nc(N3C[C@H]4CC[C@@H](C3)O4)c3cccn3n2)cc1 | 0.0999 µM | 16 µM |
| CN(C)C=O.CN(C)C=O.CN1C(C(=O)Nc2ccccn2)=C([O-])c2ccccc2S1(=O)=O.CN1C(C(=O)Nc2ccccn2)=C([O-])c2ccccc2S1(=O)=O.[Cu+2] | 32.9 µM | 79.2 µM |
| N=C(N)c1ccc(CS(=O)(=O)F)cc1 | > 100 µM | > 100 µM |
| CN1CCN2c3ccccc3CC(C#N)(C#N)C2C1 (stereo unspecified) |  | > 100 µM |
| COC1CC(=O)C2C(=O)N(c3ccccc3)C(=O)C23C(C(=O)c2ccccc2)=C(C)NC13O (stereo unspecified) |  | 60.9 µM |
| O=c1[nH]ccc2nc(N3CCC(O)CC3)nc(Nc3ccc(N4CCOCC4)cc3)c12 |  | > 100 µM |
| CCOC(=O)CC[C@H](NC(=O)c1ccc(CNc2nc3cc(C(F)(F)F)ccc3nc2C(=O)OCC)cc1)C(=O)OCC |  | > 100 µM |
| C=C(c1ccc(OC)c(/C=C/C(=O)c2cc(OC)c(OC)c(OC)c2)c1)c1cc(OC)c(OC)c(OC)c1 | 2.93 µM | 18.6 µM |
| Nc1nc(Cl)cc(NCC2(CO)CC(CCCc3ccccc3)C2)n1 (stereo unspecified) |  | > 100 µM |
| COc1ccc2c3c(ccc2c1)NC(C(=O)O)CC3 (stereo unspecified) |  | > 100 µM |
| Cc1c2ccccc2c(CSC(=N)N)c2ccccc12 |  | 1.89 µM |
| CC1(C)[C@H]2CC[C@](C)(C2)[C@]1(S)Cc1ccccn1 |  | > 100 µM |
| COc1cc(/C=C2/CCCc3ccccc3C2=O)cc(OC)c1OC |  | > 59.7 µM |
| CC[C@]1(Cc2ccc(OC)c(OC)c2)C=[N+]([O-])O[C@H](OC2CCCCC2c2ccccc2)[C@@H]1OC(C)=O (stereo partly specified) |  | > 100 µM |
| COc1cc2c(NCCN(C)C)nc3c4cc5c(cc4ccc3c2cc1OC)OCO5 |  | 6.19 µM |
| O=S(Cc1cnc2ccccc2c1)c1nc2ccccc2nc1-c1cccs1 (stereo unspecified) |  | 39.9 µM |
| Nc1nc(=O)c2[nH]cnc2n1O |  | > 100 µM |

| SMILES | GI50 | TGI |
| --- | --- | --- |
| Cc1ccc(C(=O)Nc2ccc(CN3CCN(C)CC3)c(C(F)(F)F)c2)cc1C#Cc1cnc(N)c2ccc(C#N)cc12 | 4.63 µM | > 39.5 µM |
| CC(=O)CC(=O)ON(C)C(C)=O |  | > 100 µM |
| CC(=O)Oc1c(C)cc2c(c1C)C(C)(C)CN2C(=O)C(C)(C)C |  | > 100 µM |
| NCc1ccc(O)c(O)c1O |  | 59.2 µM |
| O=C(Nc1ccc(-n2ccc3c(NC(=O)c4ccccc4)ncnc32)cc1)Nc1ccc(Cl)c(C(F)(F)F)c1 | 1.83 µM | 4.47 µM |
| COc1ccc(C(=O)NNC(=O)c2nsc3ccccc23)cc1 |  | > 100 µM |
| O=C1CC(c2ccccc2)NCCCCN2CC(CN1)C(C(O)c1ccccc1)C2=O (stereo unspecified) |  | > 100 µM |
| O=C1/C(=N/N=C(c2ccccc2)c2ccccc2)c2ccccc2-c2ccccc21 |  | > 100 µM |
| COc1c(C(=O)/C(=N/Nc2cccc(Cl)c2)C(C)=O)c(O)c(OC)c2occc12 |  | > 100 µM |
| COC(=O)C12OCC34C(CC5C(C)C6=CC(=O)OC6=CC5(C)C3C(O)C1O)OC(=O)C(OC(C)=O)C24 (stereo unspecified) |  | 43.5 µM |
| Clc1cc2nc[nH]c2cc1Cl |  | > 100 µM |
| Cc1cc(C)nc(NS(=O)(=O)c2ccc(Nc3nc4nc(NCc5ccccc5)nc(-c5ccc(O)cc5)c4c(=O)[nH]3)cc2)n1 | 48.5 µM | > 100 µM |
| NC(N)=NS(=O)(=O)c1ccc(NC(=O)c2cccn3c(=O)c4ccccc4nc23)cc1 |  | > 100 µM |
| CC(=O)OC1COC(n2c(O)c(N=Nc3ccc([N+](=O)[O-])cc3)c3cc(Br)c([N+](=O)[O-])cc32)C(OC(C)=O)C1OC(C)=O (stereo unspecified) |  | > 100 µM |
| Cc1cccc(C)c1NC(=O)C(=O)C(c1ccccc1Cl)S(=O)(=O)Cc1ccccc1Cl (stereo unspecified) |  | > 100 µM |
| COc1ccc2nc(-c3ccc(Cl)cc3)cc(-c3nnc(SCC(=O)Nc4ccc(/C(C)=N\O)cc4)o3)c2c1 | 2.7 µM | 16.7 µM |
| CN1C(=O)C(C)(C)NS1(=O)=O |  | > 100 µM |
| CC(=O)N(CN1C(=O)CCC1C(=O)O)c1ccc(C)cc1 (stereo unspecified) |  | > 100 µM |
| O=C(N/C(=C\NC1=NCCS1)C(=O)N1CSC[C@@H]1C(=O)O)c1ccccc1 |  | > 100 µM |
| O=c1/c(=C/c2ccccc2O)sc2nc3ccccc3n12 |  | > 100 µM |
| O=S1(=O)OCc2ccccc21 |  | > 100 µM |
| O=P1(N(CCCl)CCCl)Oc2c(Cl)cc(Cl)c(Cl)c2Cc2c(Cl)c(Cl)cc(Cl)c2O1 |  | > 100 µM |
| Cc1nnc(N2C(=O)C(=Cc3ccc(Cl)cc3)N=C2c2ccc(Cl)cc2)nc1/C=C\c1ccc(N(C)C)cc1 |  | > 100 µM |
